The supplement of paper PMC3334620
In all, about 33,000 sequences were measured (“E-score (-0.5 to 0.5)”: median about -0.056, highest 2% from about 0.38 on). Some of the results follow.

Target: Stb4 (UniProt P50104)
Assay: PBM E-score (8-mer binding enrichment) (E-score (-0.5 to 0.5)); higher = stronger / more preferred TF binding; most listed sequences are background and not binding sites
Conditions: protein concentration: 200 nM; construct: GST-DNA-binding domain
Procedure, shortened: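 Universal all-10-mer Agilent arrays, fresh or stripped once, were converted to double-stranded form by primer extension. GST-tagged yeast transcription factors from PURExpress in vitro transcription/translation, full-length or DNA-binding domain only, were applied at about 100-200 nM and detected with fluorescent anti-GST. After masliner normalisation, the Universal PBM Analysis Suite scored each ungapped eight-base word together with its reverse complement by E-score.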

Going from GGGGATAC to CAAGTCAC, the “PBM E-score” value falls from -0.0133 to -0.149.

Going from GAGCACCC to CAGATTTC, the “PBM E-score” value falls from 0.123 to -0.0451.

Going from GCGCACAC to CGCAACGC, the “PBM E-score” value rises from 0.0106 to 0.0134.

Compared with CCTCGATA, AACAAACG is lower in “PBM E-score” value: -0.048 for the first, -0.171 for the second.

Going from GCTTCCTA to AGTCTGGA, the “PBM E-score” value falls from -0.0701 to -0.209.

Compared with TCTCTACA, GCGGTCCC is higher in “PBM E-score” value: -0.163 for the first, 0.113 for the second.

Compared with ATGAAAGC, AGGCACGA is lower in “PBM E-score” value: 0.0338 for the first, -0.19 for the second.

Compared with CAGAGAAC, TTAGGGAA is lower in “PBM E-score” value: -0.197 for the first, -0.262 for the second.

Compared with CGGATTAC, CACGCCTA is lower in “PBM E-score” value: 0.201 for the first, -0.262 for the second.

First: CCTAGAGC
Second: GGCTTTCA
The “PBM E-score” value of the first is lower: -0.0811 for the first, 0.0635 for the second.

First: CGTTGGAG
Second: GTTTCACA
The “PBM E-score” value of the first is lower: -0.232 for the first, -0.171 for the second.

Going from GACTGCCA to GCCGCCCA, the “PBM E-score” value rises from -0.149 to 0.0651.

Going from ACGTGCCC to AGTCAAAG, the “PBM E-score” value falls from -0.0194 to -0.034.

First: ACGCACAA
Second: AATGAAGG
The “PBM E-score” value of the first is higher: -0.182 for the first, -0.254 for the second.

Going from AGGAATGG to GATCATAC, the “PBM E-score” value rises from -0.23 to -0.0525.

First: AGACTTCC
Second: CGACCTAG
The “PBM E-score” value of the first is higher: 0.144 for the first, -0.0164 for the second.

Going from AATACACC to ATAACGTC, the “PBM E-score” value falls from 0.0448 to -0.077.

Compared with GCTTGAAA, GCGCTTCC is higher in “PBM E-score” value: -0.0142 for the first, 0.206 for the second.

First: GCCCCAAA
Second: GGCAGACA
The “PBM E-score” value of the first is lower: -0.232 for the first, 0.124 for the second.

First: TCGCTTCA
Second: CTTTGTCA
The “PBM E-score” value of the first is higher: -0.0932 for the first, -0.168 for the second.

Going from ACCGCAAG to ATTGACTC, the “PBM E-score” value falls from 0.101 to 0.0397.

First: ATGTTCGA
Second: GTCAGGGA
The “PBM E-score” value of the first is lower: -0.112 for the first, -0.081 for the second.

Going from TACGGATA to GCTCGGTA, the “PBM E-score” value rises from 0.385 to 0.416.

Compared with AGCATAAC, ATACAAGC is higher in “PBM E-score” value: -0.119 for the first, -0.0427 for the second.

First: CGACTGGC
Second: ACATGTGA
The “PBM E-score” value of the first is higher: 0.0876 for the first, -0.247 for the second.

Compared with CAGGGTGG, CTGTTGAC is higher in “PBM E-score” value: -0.251 for the first, -0.242 for the second.

Going from ACTTTATA to CAAAATAA, the “PBM E-score” value falls from 0.0827 to -0.0484.

First: ACGTCCTC
Second: AGATACGC
The “PBM E-score” value of the first is lower: -0.144 for the first, -0.0363 for the second.

Compared with GATGACCA, ATTCTACC is higher in “PBM E-score” value: -0.108 for the first, 0.0527 for the second.

Going from CACATATC to ATCTGAGA, the “PBM E-score” value falls from -0.0483 to -0.0638.

First: GGCCCCTA
Second: CTTTAGCC
The “PBM E-score” value of the first is lower: -0.0463 for the first, 0.172 for the second.

First: CTGTGAAC
Second: CGTTCGTC
The “PBM E-score” value of the first is lower: -0.137 for the first, -0.0301 for the second.

First: ATAGTGGA
Second: CATCGTGA
The “PBM E-score” value of the first is higher: -0.0464 for the first, -0.134 for the second.

Going from GAGATGCC to ATCAATAC, the “PBM E-score” value falls from 0.0539 to -0.17.

Going from GACAACGA to TAGGTCGA, the “PBM E-score” value falls from -0.0453 to -0.13.

Compared with CCCTTATC, ACAAACGG is higher in “PBM E-score” value: -0.0435 for the first, 0.187 for the second.

Compared with AGAGCTCC, GTAGGCTA is lower in “PBM E-score” value: -0.0492 for the first, -0.23 for the second.

First: ATACAACA
Second: ATCGGCAG
The “PBM E-score” value of the first is lower: -0.219 for the first, 0.321 for the second.

Compared with ACTCACTA, AAGAGTAG is higher in “PBM E-score” value: -0.0905 for the first, -0.0478 for the second.

Going from ACATTCGC to AAGCGCGT, the “PBM E-score” value rises from -0.0892 to -0.0061.

First: TGAGGAAA
Second: CGTGAAGC
The “PBM E-score” value of the first is higher: -0.0691 for the first, -0.0811 for the second.

Compared with ACCAACGT, AAGTGGGT is higher in “PBM E-score” value: -0.0953 for the first, -0.0789 for the second.

Compared with ATGAAAAA, AAGGACGC is lower in “PBM E-score” value: 0.0997 for the first, -0.102 for the second.

Compared with AGTTTCAG, ACCGGTCT is lower in “PBM E-score” value: -0.0891 for the first, -0.11 for the second.

Compared with ACGGCTAC, CCGGACCC is higher in “PBM E-score” value: 0.249 for the first, 0.303 for the second.

Compared with CAGTTAAG, AAGGGGAC is lower in “PBM E-score” value: -0.0574 for the first, -0.0934 for the second.

Going from ACATGCGC to AATAAATT, the “PBM E-score” value rises from -0.0782 to -0.0542.

First: TGCTATAA
Second: GTAATCTA
The “PBM E-score” value of the first is lower: -0.0519 for the first, 0.0719 for the second.

Compared with CACCATGG, ACGCGCTC is higher in “PBM E-score” value: -0.29 for the first, -0.0789 for the second.

First: ATCTACAA
Second: AGCCTAAA
The “PBM E-score” value of the first is higher: -0.164 for the first, -0.227 for the second.

Compared with ATCAGGTA, CCCTGTCG is higher in “PBM E-score” value: -0.0642 for the first, -0.0338 for the second.

First: AAGTGGAC
Second: ATAGTGAG
The “PBM E-score” value of the first is higher: -0.0959 for the first, -0.215 for the second.

First: CACATGCA
Second: ATACAGAC
The “PBM E-score” value of the first is lower: -0.166 for the first, -0.134 for the second.

Going from ATAGAGAC to GTAGATCA, the “PBM E-score” value rises from -0.16 to 0.0459.

First: GAGATAAC
Second: CGAGTAGC
The “PBM E-score” value of the first is lower: -0.0742 for the first, 0.192 for the second.

Going from GTAAGTAA to TGAAGTAA, the “PBM E-score” value falls from 0.0969 to -0.0839.

Compared with AAAAGATC, AGCGCCAC is lower in “PBM E-score” value: -0.0074 for the first, -0.135 for the second.

First: ATCAGGAG
Second: GAGCTCCC
The “PBM E-score” value of the first is lower: -0.0915 for the first, 0.0963 for the second.

Going from ACTTAACC to CGGCGACC, the “PBM E-score” value rises from 0.0933 to 0.235.

Compared with AGCTTCAC, CTTATTCC is higher in “PBM E-score” value: -0.221 for the first, 0.151 for the second.

Compared with TACCTGGA, GCAATCAA is lower in “PBM E-score” value: -0.0158 for the first, -0.142 for the second.

Compared with ATTACCCC, CCGCGACA is lower in “PBM E-score” value: 0.133 for the first, 0.106 for the second.

Compared with CTAAATAA, TACAATGA is lower in “PBM E-score” value: -0.0476 for the first, -0.264 for the second.

Going from GGTGAGGA to AAGCACGT, the “PBM E-score” value falls from -0.0535 to -0.0987.

Compared with CGGTCATA, ATTTGGAC is lower in “PBM E-score” value: 0.0682 for the first, -0.0985 for the second.

First: GCTACTAC
Second: TAGCAAGA
The “PBM E-score” value of the first is higher: 0.0879 for the first, -0.146 for the second.

Going from GTCCTGAA to AATCCAGA, the “PBM E-score” value rises from -0.197 to -0.0418.

First: ATGCGGCG
Second: CAGAAGAA
The “PBM E-score” value of the first is higher: 0.0381 for the first, -0.167 for the second.

First: AAACTGTT
Second: AACTCGTG
The “PBM E-score” value of the first is lower: -0.0354 for the first, 0.0628 for the second.

Going from CTGGACAC to AACATTCT, the “PBM E-score” value rises from -0.0889 to -0.0796.

First: AGCAACTG
Second: ACTAAAAT
The “PBM E-score” value of the first is higher: -0.0213 for the first, -0.0643 for the second.

Compared with TCGGACGA, CTATTCCA is lower in “PBM E-score” value: 0.302 for the first, -0.151 for the second.

Compared with AATCGCCC, AGGATCAT is lower in “PBM E-score” value: -0.0803 for the first, -0.197 for the second.

Compared with GCGGGGTA, AGCCCGGG is higher in “PBM E-score” value: 0.106 for the first, 0.304 for the second.

First: CACCGCTG
Second: AGAACTAC
The “PBM E-score” value of the first is lower: -0.203 for the first, 0.0216 for the second.

First: GAAGCCAA
Second: ATTAATGC
The “PBM E-score” value of the first is higher: 0.112 for the first, -0.0403 for the second.

First: CGCAAAGA
Second: GCTGCTCA
The “PBM E-score” value of the first is higher: -0.00111 for the first, -0.262 for the second.

First: ATGGATCG
Second: CACAAGAG
The “PBM E-score” value of the first is higher: 0.196 for the first, -0.073 for the second.

Compared with GAATGCAC, ACCCGCTC is higher in “PBM E-score” value: 0.026 for the first, 0.0516 for the second.

Going from ATAGGGAA to GGCACTCA, the “PBM E-score” value falls from 0.0223 to -0.187.

Compared with ATGGCTCG, CAGCATGC is lower in “PBM E-score” value: -0.0233 for the first, -0.132 for the second.

Compared with TGCGCGCA, CTCACTCA is lower in “PBM E-score” value: -0.0292 for the first, -0.242 for the second.

Going from ATCCTTCC to CGACAAGA, the “PBM E-score” value falls from 0.18 to 0.0203.

Going from ACCACCGC to CAATTACA, the “PBM E-score” value falls from -0.0347 to -0.0962.

Going from CATAGAGA to CCGGACAG, the “PBM E-score” value rises from -0.128 to 0.255.

Going from CCCGCCTC to CCCGGAAG, the “PBM E-score” value rises from 0.163 to 0.417.
